Results from publication PMC4336329 (PLoS ONE, 2015).
The campaign covered roughly 310,000 compounds. About 2,200 (0.71%) showed an effect of 50% or more. The effect is printed as a negative number. The list shows a part of the results.

The compounds below were run against human ether-à-go-go-related gene (hERG) potassium channel (human, UniProt Q12809) (assay: primary screen, population patch clamp on CHO cells stably expressing hERG).
human ether-à-go-go-related gene (hERG) potassium channel, sequence (Q12809 whole entry, looked up): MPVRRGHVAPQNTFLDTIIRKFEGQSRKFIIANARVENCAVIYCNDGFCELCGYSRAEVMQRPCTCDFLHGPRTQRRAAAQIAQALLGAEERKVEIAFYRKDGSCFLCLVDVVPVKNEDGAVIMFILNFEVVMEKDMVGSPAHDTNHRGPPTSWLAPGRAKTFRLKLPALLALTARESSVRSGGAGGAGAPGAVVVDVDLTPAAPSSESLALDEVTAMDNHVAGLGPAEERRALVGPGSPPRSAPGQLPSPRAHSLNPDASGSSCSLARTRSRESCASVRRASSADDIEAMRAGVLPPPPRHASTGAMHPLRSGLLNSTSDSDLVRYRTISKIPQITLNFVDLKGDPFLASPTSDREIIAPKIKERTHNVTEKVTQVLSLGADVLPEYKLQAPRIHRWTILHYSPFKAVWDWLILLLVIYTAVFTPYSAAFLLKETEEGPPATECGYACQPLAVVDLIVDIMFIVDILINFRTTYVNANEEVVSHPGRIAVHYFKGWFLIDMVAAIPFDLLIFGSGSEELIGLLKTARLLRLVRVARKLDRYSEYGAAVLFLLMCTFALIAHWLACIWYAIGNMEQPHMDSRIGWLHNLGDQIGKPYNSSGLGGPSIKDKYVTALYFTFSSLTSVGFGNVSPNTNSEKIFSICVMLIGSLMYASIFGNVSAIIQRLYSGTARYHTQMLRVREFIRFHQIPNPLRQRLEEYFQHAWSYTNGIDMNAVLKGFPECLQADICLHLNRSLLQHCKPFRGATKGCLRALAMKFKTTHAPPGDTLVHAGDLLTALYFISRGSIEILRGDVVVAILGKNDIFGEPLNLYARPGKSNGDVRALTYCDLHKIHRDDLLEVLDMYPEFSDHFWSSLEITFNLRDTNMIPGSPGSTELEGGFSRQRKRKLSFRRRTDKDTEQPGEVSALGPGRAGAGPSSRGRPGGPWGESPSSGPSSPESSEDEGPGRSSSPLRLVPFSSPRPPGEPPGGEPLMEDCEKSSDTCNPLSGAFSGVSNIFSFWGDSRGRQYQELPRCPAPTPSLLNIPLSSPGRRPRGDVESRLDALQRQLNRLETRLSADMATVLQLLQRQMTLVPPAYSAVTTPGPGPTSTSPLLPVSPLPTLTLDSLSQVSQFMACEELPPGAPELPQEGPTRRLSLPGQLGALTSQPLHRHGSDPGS

SMILES	hERG current change (%, negative = inhibition) at 1uM [%]
CCCc1nc2ccccc2n1C(=S)SC	5.56
CCOc1ncccc1C(=O)N(CC)CC(=O)NCc1ccc(F)cc1	11.6
CCC(C)(C)n1nnnc1C(c1ccccn1)N1CCOCC1 (centres unmarked)	7.25
CC(C)CCNC(=O)c1cc(C(=O)c2cc(Br)ccc2O)cn(CCC(C)C)c1=O	15.7
COc1ccc(CN2C(=NC(=O)C3CCCO3)SC3CS(=O)(=O)CC32)cc1OC (centres unmarked)	15.5
CCOC(=O)c1cnc2c(-c3ccccc3OC)c(C)nn2c1C	8.89
CN(C)CCNC(=O)C(C(=O)c1ccccc1)n1ccccc1=O.Cl (centres unmarked)	12.7
CCOc1cc(S(=O)(=O)NCc2ccccn2)ccc1Cl	6.33
COc1ccccc1-c1nnc(SCC(=O)c2c(N)n(C3CC3)c(=O)[nH]c2=O)n1C	10.8
COC(=O)Cn1cc(C(=O)C(F)(F)F)c2ccccc21	15.7
Cc1cccc(NC(=O)c2ccc(NC(C)c3ccccc3)c([N+](=O)[O-])c2)n1 (centres unmarked)	10
COc1ccccc1-c1nn(-c2ccccc2)cc1C(=O)N1CCN(C(=O)c2ccco2)CC1	-2.77
Cl.OCCCCCNc1ncnc2ccccc12	5.49
NNC(=O)CN1CCN(c2ncc(C(F)(F)F)cc2Cl)CC1	6.48
Cc1cccc(C(=O)Nc2ccc(C(=O)c3ccccc3)cc2)c1	7.65
COC(=O)Cc1cc(=O)oc2cc(OC)ccc12	7
Cc1ccc(S(=O)(=O)N2CCOCC2)cc1C(=O)Nc1ccncc1	-11.3
CC(=O)OCC1=C(C(=O)O)N2C(=O)C(NC(=O)c3ccc(COc4cccc(Cl)c4Cl)o3)C2SC1 (centres unmarked)	12.5
Cc1onc(-c2ccccc2)c1C(=O)OCc1nnc(-c2ccccc2)o1	5.73
COc1ccc(C(=O)Nc2ccnn2C2CCN(Cc3ccc4nonc4c3)CC2)cc1	-0.334
O=S(=O)(/N=C(/c1ccc(Cl)cc1)N1CCOCC1)c1ccc(Cl)cc1	4.89
Fc1ccc(-c2nnc(CN3CCN(c4ncc(C(F)(F)F)cc4Cl)CC3)o2)cc1	-6.39

SMILES	hERG current change (%, negative = inhibition) at 1uM [%]
Cc1ccsc1/C=C(\C#N)C(=O)NCc1cccnc1	-1.62
CSCCC(NS(=O)(=O)c1ccc(C)cc1)C(=O)NCCc1c[nH]c2ccccc12 (centres unmarked)	8.53
CSc1nc(N(C)NC(=O)c2ccc(Cl)cc2)c2ccccc2n1	-0.805
Cc1cccc(OCc2nnc(SCC(=O)N3c4ccccc4CCc4ccccc43)o2)c1	5.88
CCNc1nc(OCCNS(=O)(=O)c2cc(C)ccc2C)nc(N(C)C)n1	7.78
CC(NC(=O)c1cccc(S(=O)(=O)N2CCN(C)CC2)c1)c1ccc(Cl)cc1Cl (centres unmarked)	5.66
COc1ccc(CCNc2nc(C)nc3c2oc2ccccc23)cc1OC	12.4
O=C(NCCCN1CCCC1=O)NC1CCCCC1	7.21
O=C(Nc1ccccc1C(=O)N1CCN(CCO)CC1)c1cccc([N+](=O)[O-])c1	16.1
C=CCn1c(SCC(=O)N2N=C(c3ccco3)CC2c2ccco2)nnc1-c1ccncc1 (centres unmarked)	-9.35
Cc1ccc(-c2csc(N(CCO)CCCn3c(C(F)(F)F)nc4ccccc43)n2)cc1	13.2
CCOC(=O)Nc1ccc2c(c1)N(C(=O)CCN(C)C)c1ccccc1CC2	-7.48
COC(=O)C1CCN(C(=O)COC(=O)c2cc(-c3cccs3)nn2-c2ccccc2)CC1	2.56
O=C(CN1C(=O)c2ccccc2S1(=O)=O)N1CCCCC1	15.2
CCOC(=O)N1CCN(C(=O)C2CCCN(S(=O)(=O)c3c(C)cc(C)cc3C)C2)CC1 (centres unmarked)	6.76
O=C(CCC1N=C2c3ccccc3N=C(SCc3ccc(Cl)cc3)N2C1=O)NCc1ccco1 (centres unmarked)	2.6
CCn1c2ccc(OC)cc2c2nc3ccccc3nc21	0.563
CN(C)c1cc(-c2ccc(C#N)cc2)oc(=O)c1Cl	-20.3
COc1cccc2c1Oc1cc([N+](=O)[O-])cc(N(C)C(C)=O)c1C=C2	15.2
O=C(COC(=O)CNC(=O)c1ccc2c(c1)OCO2)Nc1ncc(Cl)cc1Cl	-5.37
O=C(Nc1ccccc1OC(F)F)c1cccc(S(=O)(=O)N2CCCC2)c1	9.81
Cc1cc(N2CCN(c3ccccn3)CC2)n2nc(C)nc2n1	-15.8

SMILES	hERG current change (%, negative = inhibition) at 1uM [%]
O=C(Cn1cc2c(n1)CCCCC2)N1CCc2ccccc21	12.6
CN(CC(=O)Nc1ccc(F)cc1)C(=O)COC(=O)Cc1cccs1	-4.63
O=S(=O)(c1ccccc1F)N1CCN(Cc2cc3c(cc2Br)OCCO3)CC1	10.6
CCOCCCn1c(SCC(=O)NC(C)C)nc2ccccc2c1=O	2.33
Cc1cc(C)cc(NC(=O)Nc2cccc(S(N)(=O)=O)c2)c1	-10.8
Cc1nc(-c2ccccc2)sc1C1(C)CC(c2ccccc2F)=NO1 (centres unmarked)	1.3
CCCC(=O)Nc1cc(C(F)(F)F)ccc1N1CCOCC1	10.2
Cc1ccc(OCCn2ccnc2)c([N+](=O)[O-])c1	8.99
O=C(c1cc(COc2ccc(F)cc2F)on1)N1CCSCC1	6.36
COc1cc2c(=O)n(CC3CCCO3)c(=O)n(CC(=O)Nc3ccccc3)c2cc1OC (centres unmarked)	6
CCc1ccc(OCC(=O)Nc2ccc3c(c2)OCCO3)cc1	7.23
C=C[C@]1(C)C[C@@H](OC(=O)CSCCN(CC)CC)[C@]2(C)C(C)CC[C@]3(CCC(=O)[C@H]32)[C@@H](C)[C@@H]1O (some centres unmarked)	-9.71
CC[N+]12CCC(CC1)C(C(O)(c1ccccc1)c1ccccc1)C2.[Br-] (centres unmarked)	7.76
Cc1ccc(C(=O)CSc2nnc(N)s2)c(C)c1	0.686
O=C(Nc1ccc(Oc2cccnc2)cc1)c1ccccc1Cl	1.83
CCC(=NCc1ccco1)c1c(O)n(-c2ccccc2)c(=O)[nH]c1=O	15.5
CN(C(=O)COC(=O)CN1C(=O)c2ccccc2C1=O)c1c(N)n(Cc2ccccc2)c(=O)[nH]c1=O	4.14
O=C(Nc1nnc(-c2ccco2)o1)c1ccc(S(=O)(=O)N2CCOCC2)cc1	15.2
CCCCNC(=S)NNC(=O)c1cc(C2CC2)nc2ccccc12	13.2
Clc1ccc(CSc2ccc(-c3cccnc3)nn2)cc1	3.5
C#CCCOC(=O)N1C2=NC(C(=O)OC)=C(C(=O)OC)[C@@H]3N(C)c4ccccc4[C@]23C[C@H]1C(=O)OC	7.39
C=CCN(c1ccccc1)S(=O)(=O)c1cccc2cccnc12	13.6

SMILES	hERG current change (%, negative = inhibition) at 1uM [%]
CN(C)/C=C1\C(=O)NN=C1c1ccccc1	0.298
C/C(=C1/C(=O)N(c2ccc([N+](=O)[O-])cc2)N=C1c1ccccc1)N(C)C	-5.78
CC(Oc1cc2oc(=O)c3c(c2cc1Cl)CCC3)C(=O)NC1CC(C)(C)NC(C)(C)C1 (centres unmarked)	12.7
COc1cc(C(=O)NCc2cn3cccc(C)c3n2)cc(OC)c1OC	4.19
C=CCn1c(O)c(C(CC)=NC(C)c2ccccc2)c(=O)[nH]c1=O (centres unmarked)	-4.33
O=C(O)c1ccc2cccnc2n1	21.7
COc1ccccc1CN1CN(S(=O)(=O)c2ccccc2)c2nc3ccccc3nc21	11
CCOC(=O)C1(Cc2cccc(OC)c2)CCCN(Cc2c(C)nn(C(C)C)c2C)C1 (centres unmarked)	4.85
O=C(CN1C(=O)c2ccc([N+](=O)[O-])cc2C1=O)Nc1cc(S(=O)(=O)N2CCOCC2)ccc1Cl	-0.522
C=CCc1cccc2cc(C(=O)NNC(=O)c3ccncc3)c(=O)oc12	18.7
O=C(CN1CCOc2ccccc21)NC1CCCCCCC1	3.04
COc1ccc(C(=O)Nc2cc(-c3ccccc3)nn2-c2ccccc2F)cc1	-1.84
CCOC(=O)C(CC)Sc1ccc2nnc(CCNS(=O)(=O)c3ccccc3)n2n1 (centres unmarked)	3.33
CC(=O)c1ccc(NC(=S)N2C(C)CCCC2C)cc1 (centres unmarked)	7.22
CCC(c1ccc(C)cc1)N1C(=O)C2C3CCC(O3)C2C1=O (centres unmarked)	12.2
CCOC(=O)c1c(NC(=O)COC(=O)Cn2cnc3c2c(=O)n(C)c(=O)n3C)sc(C)c1CC	6.5
Nc1ccc2nc(-c3cccs3)[nH]c2c1	14.4
CC(Sc1nc2ccccc2c(=O)n1Cc1ccco1)C(=O)c1ccccc1 (centres unmarked)	-19.5
O=C1CC(N2CCN(c3ccccc3O)CC2)C(=O)N1Cc1ccccc1 (centres unmarked)	15.3
O=C(CN(C(=O)c1csnn1)c1ccccc1Cl)NCCc1ccccc1	10.8
